Sequences with one replicate were seen in a single cluster, so their values are uncertain.
Test system: ATP
Experiment: switch fluorescence ratio, 500 uM ATP over buffer (Cy3 cluster intensity, sum of 5 cycles each) (fold (ratio)); higher = stronger signal-on switching upon ATP binding; sequences stand for … in TCGTCGGCAGCGTCAGATGTGTATAAGAGACAGTTTTTTTTTTTTTTTTTTTTTTTTT…TC
Settings: aptamer strand: ATP DNA aptamer (quencher-CACCTGGGGGAGTATTGCGGAGGAAGG + anchor), 100 nM annealed; ATP concentration: 500 uM; one replicate
How it was run: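 After annealing to 100 nM quencher-labelled ATP aptamer, Cy3-labelled switching-strand clusters on a modified Illumina MiSeq flow-cell were imaged in selection buffer. A second image followed after 15 min with 500 uM ATP at 22 °C, and five such buffer/ATP cycles were done, each separated by NaOH stripping and re-annealing. The fluorescence ratio, averaged per switch-domain sequence, is summed target-cycle over summed buffer-cycle Cy3 intensity per cluster, with clusters outside 100-1000 RFU excluded.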
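Further: ATP exposure 15 min at 22 °C before imaging.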

CACCTGGGAA
switch fluorescence ratio: 0.963

TTGTTCTTGA
switch fluorescence ratio: 0.976

AGAGGGAGCG
switch fluorescence ratio: 0.96

AGAGGTGGC
switch fluorescence ratio: 1.1

ACACCACGGG
switch fluorescence ratio: 1.27

CACTATCGGC
switch fluorescence ratio: 1.07

GGAGGTCAGA
switch fluorescence ratio: 0.996

TAATCTGTTG
switch fluorescence ratio: 1.01

TGGCACGCCC
switch fluorescence ratio: 0.992

ACTCATGCGA
switch fluorescence ratio: 2.6

TGTGGGAGGA
switch fluorescence ratio: 1.04

CTAATCTGTA
switch fluorescence ratio: 0.954

AGTGTCTATC
switch fluorescence ratio: 0.961

TAGGGCACT
switch fluorescence ratio: 0.982

CGGGGTGT
switch fluorescence ratio: 1.06

ACAGACTTCA
switch fluorescence ratio: 1.1

ACCAGTCGC
switch fluorescence ratio: 1

CCTGTGTTGC
switch fluorescence ratio: 1.26

GCGAACGTAA
switch fluorescence ratio: 3.84

CGGGTGCACA
switch fluorescence ratio: 0.924

GCCGGGTTGG
switch fluorescence ratio: 1.01

ACGTCATGGT
switch fluorescence ratio: 1.14

ACGGCGGACT
switch fluorescence ratio: 0.994

CTAGGCGCTT
switch fluorescence ratio: 1.03

GGAGTTATGT
switch fluorescence ratio: 1.01

GTAAAAGACT
switch fluorescence ratio: 1

CCGCTGGGGA
switch fluorescence ratio: 1.7

TTCTCTTGTG
switch fluorescence ratio: 0.976

AGCCGGGACT
switch fluorescence ratio: 1.04

AAGGGGCTGA
switch fluorescence ratio: 0.971

TTGAAAGGCA
switch fluorescence ratio: 1

GCGATTTTGG
switch fluorescence ratio: 0.972

ATTTCTATAC
switch fluorescence ratio: 0.995

AATCTGGGT
switch fluorescence ratio: 0.967

GCTCTATTAC
switch fluorescence ratio: 1.38

TCCCCTACAC
switch fluorescence ratio: 1.1

ATATTCGGGA
switch fluorescence ratio: 1

CGCCGTAGTG
switch fluorescence ratio: 1.01

GCGCCACTGT
switch fluorescence ratio: 1.03

CATACAAATC
switch fluorescence ratio: 1.04

CATCAATTCA
switch fluorescence ratio: 1.04

ATGCGGACCT
switch fluorescence ratio: 0.991

AGATAGCTGT
switch fluorescence ratio: 0.983

AATCTGAACC
switch fluorescence ratio: 1.03

TTACAGGCG
switch fluorescence ratio: 1.03

TTCGTTATTT
switch fluorescence ratio: 0.996

ACATCACAAG
switch fluorescence ratio: 1.23

TCGCTAGATT
switch fluorescence ratio: 1.02

TGAAGGCTGG
switch fluorescence ratio: 0.951

AATGGTGGTG
switch fluorescence ratio: 0.99

AATGCGCAAA
switch fluorescence ratio: 1.49

CGTGCCGGTG
switch fluorescence ratio: 1.02

GGTAGTACAA
switch fluorescence ratio: 1.04

ACTTCGATCT
switch fluorescence ratio: 1.07

TCGACAGGGA
switch fluorescence ratio: 1.06

CGGGCGTACG
switch fluorescence ratio: 1.01

GGGCGTCATC
switch fluorescence ratio: 1.04

ATCGAATGTG
switch fluorescence ratio: 1.01

GATCGCGTTG
switch fluorescence ratio: 1.02

ATACGGGGAA
switch fluorescence ratio: 1.03

CCTTGTGTGT
switch fluorescence ratio: 1.06

CCGAGTCATG
switch fluorescence ratio: 1.91

GGCTGGGGAG
switch fluorescence ratio: 0.976

TCCATTTCTG
switch fluorescence ratio: 0.995

CGACGAACGT
switch fluorescence ratio: 1.08

TGCAATTGAT
switch fluorescence ratio: 1.07

AGCGTGAAGG
switch fluorescence ratio: 0.997

AAAGGCCACG
switch fluorescence ratio: 1.05

CACCGACGGC
switch fluorescence ratio: 1.71

TAGTATCGAT
switch fluorescence ratio: 1.01

GAATTTATAG
switch fluorescence ratio: 0.945

GGATTCGTTG
switch fluorescence ratio: 0.99

TCTTTTTACC
switch fluorescence ratio: 1.04

CGCAGTTGTC
switch fluorescence ratio: 1.28

GATCCCCTCT
switch fluorescence ratio: 1.03

GCAAGTGTAC
switch fluorescence ratio: 1.13

ACATTGTTCG
switch fluorescence ratio: 1.04

GTCTGCGCAT
switch fluorescence ratio: 1.67

TTAAGAACCC
switch fluorescence ratio: 0.989

TTGCGATTCT
switch fluorescence ratio: 0.985

CCTCTTAGAG
switch fluorescence ratio: 1.09

CAGGAGTATG
switch fluorescence ratio: 1.02

GTGGCCGCCC
switch fluorescence ratio: 1.14

AGTATCCGCG
switch fluorescence ratio: 1.1

TGCATTGTGA
switch fluorescence ratio: 0.98

TCAAGGTTAG
switch fluorescence ratio: 0.972

CGACACATTG
switch fluorescence ratio: 0.979

TTTGAAAACC
switch fluorescence ratio: 1.19

ATAACGAATC
switch fluorescence ratio: 1.04

CTGGGCTTCT
switch fluorescence ratio: 1.21

GTTAGACTAG
switch fluorescence ratio: 0.942

TATAAAAAGG
switch fluorescence ratio: 0.97

TAATGGCAGC
switch fluorescence ratio: 1.04

GCAGTGGACT
switch fluorescence ratio: 1.02

TGTTGACCCC
switch fluorescence ratio: 1.08

ATTTTATAAT
switch fluorescence ratio: 1.06

TATGTTTGTA
switch fluorescence ratio: 1

TTAGGCTATT
switch fluorescence ratio: 0.951

CACCGGGTGG
switch fluorescence ratio: 1.41

ATGGCATTTA
switch fluorescence ratio: 1.03

GGGTGAGC
switch fluorescence ratio: 0.933

CAGTGGGTCG
switch fluorescence ratio: 0.989

GGAAACACGG
switch fluorescence ratio: 1.03

GGATCACTAC
switch fluorescence ratio: 1.1

CAGTGCAGTC
switch fluorescence ratio: 1.01

CGGCTTCTGG
switch fluorescence ratio: 1.04

GATGTTAGCC
switch fluorescence ratio: 1

ATGCTGATAT
switch fluorescence ratio: 0.993

ATCCGCCAGT
switch fluorescence ratio: 1.8

CAACTAAACT
switch fluorescence ratio: 1.02

GGAGTAATGG
switch fluorescence ratio: 3.23

GATGTCGGGT
switch fluorescence ratio: 1.02

ACTGTCTCAA
switch fluorescence ratio: 1.01

AAGAGATCTC
switch fluorescence ratio: 1.01

TAGCGCATGC
switch fluorescence ratio: 1.05

CGCGTTGTCT
switch fluorescence ratio: 0.999

TTCTAAGAAC
switch fluorescence ratio: 1.07

AGTGAGAATA
switch fluorescence ratio: 1

CAAAGGGTTG
switch fluorescence ratio: 0.983

GCGGCAAGAG
switch fluorescence ratio: 1.48

TTTGGACAAC
switch fluorescence ratio: 1

GGCTGGATGA
switch fluorescence ratio: 0.958

TCCTAACGTA
switch fluorescence ratio: 1.18

AGAGAAATGG
switch fluorescence ratio: 0.995

CTATAGTCA
switch fluorescence ratio: 1

GTTGATTGAA
switch fluorescence ratio: 0.903

GCGATAGTTA
switch fluorescence ratio: 1.02

GATCGATGCT
switch fluorescence ratio: 0.992

GCGGATGAGG
switch fluorescence ratio: 0.921

AACACCGATT
switch fluorescence ratio: 0.995

TACTTGGGCG
switch fluorescence ratio: 1.08

AAAGGTATAT
switch fluorescence ratio: 0.974

GCGCTGGGGC
switch fluorescence ratio: 1.01

AGATTGAAGC
switch fluorescence ratio: 0.998

GGCATGAGCT
switch fluorescence ratio: 0.99

CATTAGTACT
switch fluorescence ratio: 0.986

GACTCGGTTT
switch fluorescence ratio: 1

TTTGGATCCA
switch fluorescence ratio: 0.987

GGTTTTAAGA
switch fluorescence ratio: 1.02

ACGGATGGGA
switch fluorescence ratio: 1.03

AGCCTTGAGG
switch fluorescence ratio: 1.01

AGAGTTCGTC
switch fluorescence ratio: 0.92

CCTGGGTCT
switch fluorescence ratio: 1.02

CGAATTGCAT
switch fluorescence ratio: 1.01

CCAGACCGTA
switch fluorescence ratio: 1.03

CTCAAGAGTT
switch fluorescence ratio: 0.928

ACGTTAAGCT
switch fluorescence ratio: 1.18

GATGAGTAGG
switch fluorescence ratio: 1.04

GATCCGTCAC
switch fluorescence ratio: 1.32

AAATAATCTC
switch fluorescence ratio: 1.02

TCTGAGCCGT
switch fluorescence ratio: 1.01

TAACTACTGC
switch fluorescence ratio: 0.98

TACAGCCGAT
switch fluorescence ratio: 1.08

AAATTAGTCA
switch fluorescence ratio: 1

TGATTTCAAT
switch fluorescence ratio: 1

CGAGAGCCCG
switch fluorescence ratio: 0.94

GCCATTCGGG
switch fluorescence ratio: 1.03

Reference: the supplement of paper PMC10126150
